± gives the standard deviation of the averaged measurements. This is one part of the list.
System: PfAP2-G AP2 domain (GST-tagged)
Assay: gcPBM binding intensity (ln(normalized median fluorescence intensity)); higher = stronger DNA binding
How it was run: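 Binding of GST-tagged P. falciparum DNA-binding domains, expressed in E. coli and used at about 25 μg on average, was carried out for 1 h in 1× PBS containing 1% milk, 0.2 mg/ml BSA, 0.5% salmon testes DNA and 0.03% Triton X-100. The target was an Agilent 4 × 180k array of primer-extended double-stranded 36-bp intergenic genomic probes plus negative controls, read with Alexa488 anti-GST antibody at 488 nm. Binding intensity is the highest Masliner-normalised natural-log median intensity across replicate spots of either probe orientation.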

Sequence	gcPBM binding intensity (ln)
ATTTTAATAAACACTTACATGTTTTCCAAATTGTAT [CACACA_negctrl_site1807]	9.89 ± 0.028
TTCGTTAAAAATAAATGTACATAAATAAACCTTATT [XGTACX_site621]	11.2 ± 0.75
GAAAGAGAGATATATACACACATATTTATATTTTTA [CACACA_site7057]	9.86 ± 0.17
AAAGATTTAGAAAATGAACACACGAGCACCCACCGA [CACACA_site1017]	10.7 ± 0.35
CAGATAAGGTGAAGCTGTACAAAAATGTTTTATAAC [XGTACX_site6783]	10.8 ± 0.31
AAAAGTCTCTTTTTAGTGCACATTTTATTTAAATAT	10.3 ± 0.24
TAATTAATTTATGTAACACACATTGTTGATTCAATA [CACACA_site1098]	10 ± 0.16
TTATACTGTATAGTCGCACACAAAAATATAAAATAT [CACACA_site3869]	10.4 ± 0.3
TCTAATTATCACATTGCACACACATTTCCTTTTACA [CACACA_site9140]	10.2 ± 0.18
TATTTAAAAATAAAATGTACATATTATTATGCATTA [XGTACX_site1303]	11.2 ± 0.7
TGATTCTAACTTATGGTGCAACATTATGGACACCGT	11 ± 0.72
TTACATATTTATGATTGTACACATTTATAAACAATA [XGTACX_site2190]	11.4 ± 0.89
TTAATATTGTTATAGCGTACAAATAAACATATTAAA [XGTACX_site8153]	11.4 ± 0.92
ATTATGTACTATTATACACACGTTTAATTGTAAATT [CACACA_site4278]	11.2 ± 0.81
AATGTTAAGGAGGGGAGTACATAAAATTCTCTCTCC [XGTACX_site1990]	11.5 ± 0.94
AAAAGCTATAAAAATCGGTAATTTATAACAGGAATT [CACACA_negctrl_site469]	9.59 ± 0.4
TGGTAACAGCATAGAAAATGGACAAACGAAATATAA [GTGCAC_negctrl_site537]	10.6 ± 0.26
TAAATAAACAAATTAACACACAGAATTTTTTTTTTC [CACACA_site1674]	9.77 ± 0.11
ATAATAATAAAGTGAACACACACATATAATATATAT [CACACA_site9378]	9.795 ± 0.064
ATTATACACGCGCGCACACACAACAAAAAAAAAAAA [CACACA_site7630]	10.8 ± 0.86
TCCTTGCATTTTAAAACACACAAAAATTAATTGTTA [CACACA_site7152]	10 ± 0.17
ATATTGTAAGTAAAATGTAATAAATATAATAAAATA [CACACA_negctrl_site697]	9.96 ± 0.12
TTAGTATATACATTTGCACACATTATTTTTTAACAT [CACACA_site2618]	10.16 ± 0.057

Sequence	gcPBM binding intensity (ln)
AAAAGGAAAATACTAGCACACAATATATAATAAACA [CACACA_site285]	10
ATATATATTATTATATGTACATATAAATATATTAAT [XGTACX_site5270]	11.2 ± 0.67
TTTCTAATTATTTCCCTTCAAATATATTAATATCGT [CACACA_negctrl_site429]	9.89 ± 0.14
TAAAAATGTGGACACACACACATATATATATTTAAT [CACACA_site4941]	11.4 ± 0.88
TTCATATATTATTATGCATGTTCATAAATTATCTAA [TGCATGCA_site896]	9.775 ± 0.035
TTCATATAATTATATACATGCATAAATTCTAAGTAA [TGCATGCA_site622]	9.62 ± 0.21
ATCAAAAGAAAACACACACACATACATATATATATA [CACACA_site3795]	9.95 ± 0.22
ATTTGTGTATATTAGAGTACATAAAATTAGAGGAAC [XGTACX_site1654]	11.6 ± 0.92
CATTAATGACATGATTGTACATAAGCTTTTTTACAT [XGTACX_site1888]	10.7 ± 0.44
ACCCATTCAAATTTCGCACACACATACAAAAAAAAA [CACACA_site3094]	10.4 ± 0.43
ATTTTATAAACAAATGAACACACAAACATATATATA [CACACA_site9036]	10.1 ± 0.13
TACATACATAAACACACACACACATATATATATATA [CACACA_site8953]	10.2 ± 0.4
ATTAACACTGAAAAATGTACATATATAAATATAAGC [XGTACX_site8222]	11 ± 0.61
AATATTAAAAACAAAACACACAAAAAAAAATAAACT [CACACA_site6470]	10.1 ± 0.014
AACGATATCTGTACTACACACATTATGTCATCCTAT [CACACA_site5374]	11.8 ± 1.1
ATGTAAATTAAACATGGTACACATTATACAAAATTA [XGTACX_site5675]	11 ± 0.47
AATATAGAACAATGTTGTACATATAATAATCTTATA [XGTACX_site4671]	11.3 ± 0.88
TAAAATAATACAAAATGTACAAAATTTACAAAATGT [XGTACX_site3541]	10.5 ± 0.28
ATTGCTTTTCTTTTTGCACACTTATGCATATATATA [CACACA_site2584]	10.2 ± 0.13
TAATAATAAAAATAAACACACATATAGATGTATATA [CACACA_site7360]	9.82 ± 0.19
ATTTTGTTCGAAAGGTGTACATATACAAAAATTATG [XGTACX_site957]	11.7 ± 1
GCATGTATAATGGTAGTGCATATAATAATATAATAA [GTGCAC_site9548]	10.4 ± 0.26
AGCACACCCACAAAAACACACACAAAGGTGTTCTTA [CACACA_site8355]	10 ± 0.16

Sequence	gcPBM binding intensity (ln)
TCATTATTATTCCTCACACATATATATATATATATT [CACACA_site4375]	10.2 ± 0.13
CACTTTTCATATATGACACACAAAAAATTAATAAAA [CACACA_site3639]	10.5 ± 0.21
TATTATCTCTTATGAACACACATTTTTATTTTCAAA [CACACA_site3353]	10.1 ± 0.11
ATATCGTATATGAGTGGTACTAATATGTAAAAAAAA [XGTACX_site7830]	11 ± 0.63
AAAGTTATAATACGTACACACCTTATCTTTTTGGCT [CACACA_site6267]	11.6 ± 1.1
TTTATGGGTATGTTTACACACATAAAAAAATATATG [CACACA_site5646]	10.2 ± 0.4
ATATATATGAAAATATGTACATATATATATATATAA [XGTACX_site7550]	11.1 ± 0.63
ACTGAAAAAAGAAATACACACATTCTGGATCATATA [CACACA_site3860]	9.96 ± 0.085
TTATAAAATAATTAATGTACGTTTATGTGTATCGAA [XGTACX_site6117]	11.4 ± 1
ATATAAGTATTTTGAATGCACTTTCTTTTTTTTTTT	9.87 ± 0.057
TGTGTAAACATATTCACACACATAAATTCGCATATA [CACACA_site6961]	9.715 ± 0.064
TATATAAAAAATAAATGTACACATGTAATAATAAAA [XGTACX_site2640]	11.3 ± 0.71
TATAAATATACACCCACACACATATATATATATATA [CACACA_site3745]	10.1 ± 0.25
TATATATATTTATGCTGTACCAAATAAGAATAGAAA [XGTACX_site7731]	10.7 ± 0.59
ATATGAACAAAATAAATCTCTTCAAAAATAATGTTC [GTGCAC_negctrl_site2]	9.61 ± 0.19
TAAATGATTGCATAATGTACATATAATTTTTTTTTT [XGTACX_site1988]	10.9 ± 0.45
AAAAAAAAAAATAAAGAAATCAAAATTGATGAATAA [GTGCAC_negctrl_site692]	9.44 ± 0.25
AGCACAAGCACAAGCACACATTTATATATAAATACA [CACACA_site4642]	10.1 ± 0.27
ACAAAATATACAAAATGTACAAAATTTACAAAATAT [XGTACX_site6466]	10.6 ± 0.24
AGACAGCGCACAAACACACAAACACCCACCCACATA [CACACA_site451]	10.3 ± 0.12
TACCCATGCATTTTTGCACACACATATATATATAAA [CACACA_site1429]	10.1 ± 0.21
TACTTACATATAATAACACACAAGAAAAAAATAAAA [CACACA_site1033]	10.1 ± 0.27
ATTTTTGTACACTTCTTTTTTTTTTTTCTTTTATGT [CACACA_negctrl_site1323]	11.4 ± 0.68

Sequence	gcPBM binding intensity (ln)
TAATGTTGAGAATTTTGTACATATAGATCAATTTAT [XGTACX_site5426]	10.8 ± 0.51
ATTGTTATTTATTGTGTGCGCATTAATACATACATA [GTGCAC_site9982]	10.6 ± 0.36
TAACTTTGAAAAGATGGTACACAATAATATATATAT [XGTACX_site8667]	11.1 ± 0.48
ATTTATTATGAACATACACACAAAAAAAAAAAGTAT [CACACA_site2054]	10.3 ± 0.22
GTATATTTTAATATGACACACATATTATATATATAT [CACACA_site2483]	10.1 ± 0.35
TGTATCCATATTTGTTCACACACACCCATATTTATA [CACACA_site9190]	10.2 ± 0.16
ATAATATGTATGGTCACACAGACAAGGAAAGAATAA [CACACA_site5164]	10.9 ± 0.57
AATCAATTAATATTAGCATAAAATTTTATTATTTTG [XGTACX_negctrl_site479]	9.69 ± 0.17
TGACATAAAAAATATACACACTATAATATATATACT [CACACA_site4898]	9.89 ± 0.071
TCGTGTGAAAATATTACACACATTTACTATAGTATC [CACACA_site7590]	9.93 ± 0.057
ATAAAAATTGAAACATGTACACATATTCATTTTATA [XGTACX_site7968]	11.4 ± 0.88
ATATATTTTTACCATACACACATATAATAAATATAT [CACACA_site3722]	10.3 ± 0.13
AAAAAATAATAATAATGTACAAATAAAATAAAAACA [XGTACX_site6568]	10.8 ± 0.37
AAGGAATATGTATATACACACAGGTACATATATATA [CACACA_site441]	11.1 ± 0.74
AAAAAAAAAAAAAAATGTACATATATATATATATAT [XGTACX_site876]	11 ± 0.64
ATAATAATATTGTGTACACAATAATTTGTCAAATCA [CACACA_site6019]	11.7 ± 0.86
ACATATACAAGACACACACACAACGTTTTAATAAAT [CACACA_site7017]	10.2 ± 0.21
AATGGAAAAAAAAAAATAAATACAAATAAATACAAA [GTGCAC_negctrl_site407]	9.73 ± 0.13
TATTTTTTTCTTACTACACACATATATATGCTTTCC [CACACA_site4058]	10.08 ± 0.057
TTATATTATACATACACACCCATATAACATGTTTTT [CACACA_site6539]	10.08 ± 0.057

Source: the supplement of paper PMC11417369
